# Test results from the supplement of paper PMC4604168 (melanoma cell lines).
# The other results are listed elsewhere or left out. Repeats are few or missing, and single values can be far off.
# Legend:
# Experiment in all cases: cell count relative to DMSO control; melanoma cells; higher = more viable cells
# Conditions in all cases: library dose: low library concentration; 72 h
# [1] = system: WM115
# [2] = system: WM1716
# [3] = system: WM1745
# [4] = system: WM3526
# [5] = system: WM3619
# [6] = system: WM451Lu
# 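Also: cell number obtained by counting DAPI-stained nuclei in high-throughput microscope images with image analysis software, screen run in 1,536-well plates.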
Compound,cell count [1],cell count [2],cell count [3],cell count [4],cell count [5],cell count [6]
"Cc1cc(Nc2cc(N3CCN(C)CC3)nc(/C=C/c3ccccc3)n2)n[nH]1 + OCCn1cc(-c2cnc3nnn(Cc4ccc5ncccc5c4)c3n2)cn1 [PF04217903] (first compound 0.04 µM, partner dose 1 µM)",112%,98%,97%,99.6%,119%,122%
"Cn1c(=O)n(-c2ccc(C(C)(C)C#N)cc2)c2c3cc(-c4cnc5ccccc5c4)ccc3ncc21 + Cc1nc(Nc2ncc(C(=O)Nc3c(C)cccc3Cl)s2)cc(N2CCN(CCO)CC2)n1 [dasatanib] (first compound 0.004 µM, partner dose 0.004 µM)",74.4%,76%,77.3%,105%,87.9%,93.6%
"Cc1cc(Nc2cc(N3CCN(C)CC3)nc(/C=C/c3ccccc3)n2)n[nH]1 + COC(=O)c1sccc1S(=O)(=O)Nc1ccc(Nc2ccccc2)cc1OC [GSK0660] (first compound 0.04 µM, partner dose 1 µM)",103%,97.9%,95.1%,99.4%,101%,95.6%
"Cc1cc(Nc2cc(N3CCN(C)CC3)nc(/C=C/c3ccccc3)n2)n[nH]1 + O=C(Nc1ccccc1)c1cc([N+](=O)[O-])ccc1Cl [GW9662] (first compound 0.04 µM, partner dose 2 µM)",99.2%,82.8%,101%,91.2%,96.6%,58.1%
"COc1ccc(C2=N[C@@H](c3ccc(Cl)cc3)[C@@H](c3ccc(Cl)cc3)N2C(=O)N2CCNC(=O)C2)c(OC(C)C)c1 [Nutlin-3] + O=S(=O)(c1ccccc1)N(CC(F)(F)F)c1ccc(C(O)(C(F)(F)F)C(F)(F)F)cc1 [T0901317] (first compound 0.1 µM, partner dose 1.4 µM)",101%,94.5%,73.8%,82.2%,75.9%,157%
